# Test results: PubChem BioAssay AID485294 (National Center for Advancing Translational Sciences (NCATS), 2010)
# In all, about 370,000 compounds went through this assay and about 150 (0.041%) were called active. The shares of active, inactive and inconclusive entries below differ from those in the screen. Calls follow the shape of the dose curve; as a rule, active = well fitted inhibition curve with a large enough effect; inconclusive = small, poorly fitted or top-dose-only effect; inactive = flat fitted curve, though single readings scatter. Potencies of inconclusive entries are left out as doubtful fits.
# Target: Beta-lactamase (Escherichia coli (strain K12)) (UniProt P00811)
# UniProt P00811, sequence (P00811 whole entry, looked up): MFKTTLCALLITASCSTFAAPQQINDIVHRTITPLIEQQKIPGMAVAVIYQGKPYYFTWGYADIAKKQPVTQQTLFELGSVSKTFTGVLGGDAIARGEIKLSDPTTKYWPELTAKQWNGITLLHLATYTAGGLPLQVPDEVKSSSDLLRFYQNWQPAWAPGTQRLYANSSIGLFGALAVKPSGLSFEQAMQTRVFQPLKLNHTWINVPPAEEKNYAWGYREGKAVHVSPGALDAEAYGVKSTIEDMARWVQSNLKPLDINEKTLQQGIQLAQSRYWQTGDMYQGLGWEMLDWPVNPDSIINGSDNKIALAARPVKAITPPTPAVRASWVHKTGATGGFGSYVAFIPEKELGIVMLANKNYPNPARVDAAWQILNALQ
# Experiment: qHTS Inhibitors of AmpC Beta-Lactamase (assay with detergent); also: nearly all actives have a fitted effect of over 25% in size
# Conditions: AmpC hydrolysis of nitrocefin, absorbance 480 nm, 0.01% Triton; series mostly up to 114 µM
# Summary of the method: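 AmpC (5.3 nM in the dispensed reagent) in 20 mM phosphate pH 7.0 with 0.01% (detergent screen) or 0.0001% Triton X-100 was preincubated with compounds for 15 min at room temperature. Nitrocefin was then added from an 800 uM solution, and hydrolysis was followed at 480 nm.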
# Potency is read from the fitted curve at half-maximal effect; tags tell the direction and shape of the fitted curve.
row,Compound,Potency
1,CCn1c(=O)c2c(nc3n2CC(C)CN3CCc2ccccc2)n(C)c1=O (stereo not drawn),"inconclusive [inhibitor, single point]"
2,O=C(NCCN1CCCC1)c1ccc2c(c1)N(Cc1ccccc1)C(=O)c1ccccc1S2(=O)=O,"inconclusive [inhibitor, full curve, poor fit]"
3,Cc1sc(NC(=O)COc2cccc(-n3cnnn3)c2)c(C#N)c1C,"inconclusive [inhibitor, full curve]"
4,Cc1ccc(OCC(=O)Nc2nnc(S(=O)(=O)N3c4ccccc4CC3C)s2)cc1 (stereo not drawn),inactive
5,COc1cccc(NC(=O)N2CCC3(CC2)OCCO3)c1,"inconclusive [inhibitor, partial curve, poor fit]"
6,COc1ccccc1NC(=O)c1cc[n+](C)cc1,"inconclusive [inhibitor, full curve, poor fit]"
7,Cc1ccc(NC(=O)CSc2nc(=O)n(CCN3CCOCC3)c3c2CCC3)c(C)c1,inactive
8,O=C(CCN1C(=O)c2ccccc2C1=O)NCCC1=CCCCC1,"inconclusive [inhibitor, full curve, poor fit]"
9,O=C(O)CCCCn1c(SCC(=O)Nc2ccccc2C(F)(F)F)nc2ccsc2c1=O,"inconclusive [inhibitor, full curve, poor fit]"
10,CCOC(=O)c1nnn(-c2nonc2N)c1CSc1nnc(N)s1,inactive
11,CCN(CC)c1ccc(C(=O)NNC(=O)CN2C(=O)NC3(CCCCC3)C2=O)cc1,"inconclusive [inhibitor, full curve, poor fit]"
12,Cc1ccc(OCCCn2cc(C#N)c3ccccc32)cc1,inactive
13,COc1ccc(CNCCCSc2ncccn2)c(OC)c1,"inconclusive [inhibitor, partial curve]"
14,C/C(=N/NC(=O)c1cccc(C)c1)c1c(O)cc(C)oc1=O,"inconclusive [inhibitor, full curve, poor fit]"
15,COc1ccc(/C(C)=N/NC(=O)CNC(=O)c2cccnc2)cc1,"inconclusive [inhibitor, single point]"
16,CN(Cc1cccnc1)C(=O)c1cc(S(=O)(=O)Nc2ccccc2F)ccc1Cl,inactive
17,O=C(O)Cn1cc(/C=C2/NC(=O)N(c3ccc(Cl)cc3)C2=O)c2ccccc21,"inconclusive [inhibitor, full curve]"
18,CCN(CC)S(=O)(=O)c1ccc(N2CCOCC2)c(NC(=O)c2ccc3c(c2)OCCO3)c1,"inconclusive [inhibitor, full curve, poor fit]"
